Measurements as given in the supplement of paper PMC8728848.
The other results are listed elsewhere or left out.

Columns and labels:
Test in all cases: glycan array binding signal (z-score within array); higher = stronger binding
Conditions in all cases: glycan notation: IUPAC condensed, linker removed
Fuc(a1-2)Gal = biological target: Fuc(a1-2)Gal
How it was run: (§1)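 The binding signal is a Z-score computed within each array and averaged over linkers. Arrays of the same protein sequence at different concentrations or buffers were also averaged together. Data originate from 3228 arrays in the Consortium for Functional Glycomics database, kept only where the protein sequence was available.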

Fuc(a1-2)Gal(b1-3)GalNAc = biological target: Fuc(a1-2)Gal(b1-3)GalNAc
How it was run: as §1

[1] = biological target: Fuc(a1-2)Gal(b1-3)GalNAc(b1-3)Gal
How it was run: as §1

[2] = biological target: Fuc(a1-2)Gal(b1-3)GalNAc(b1-3)Gal(a1-4)Gal(b1-4)Glc
How it was run: as §1

[3] = biological target: Fuc(a1-2)Gal(b1-3)GalNAc(b1-4)[Neu5Ac(a2-3)]Gal(b1-4)Glc
How it was run: as §1

Fuc(a1-2)Gal(b1-3)GlcNAc = biological target: Fuc(a1-2)Gal(b1-3)GlcNAc
How it was run: as §1

[4] = biological target: Fuc(a1-2)Gal(b1-3)GlcNAc(b1-3)Gal(b1-4)Glc
How it was run: as §1

[5] = biological target: Fuc(a1-2)Gal(b1-3)[Fuc(a1-4)]GlcNAc
How it was run: as §1

Fuc(a1-2)Gal(b1-4)Glc = biological target: Fuc(a1-2)Gal(b1-4)Glc
How it was run: as §1

Fuc(a1-2)Gal(b1-4)Glc6S = biological target: Fuc(a1-2)Gal(b1-4)Glc6S
How it was run: as §1

Fuc(a1-2)Gal(b1-4)GlcNAc = biological target: Fuc(a1-2)Gal(b1-4)GlcNAc
How it was run: as §1

[6] = biological target: Fuc(a1-2)Gal(b1-4)GlcNAc(b1-3)Gal(b1-4)GlcNAc
How it was run: as §1

[7] = biological target: Fuc(a1-2)Gal(b1-4)GlcNAc(b1-3)Gal(b1-4)GlcNAc(b1-3)Gal(b1-4)GlcNAc
How it was run: as §1

[8] = biological target: Fuc(a1-2)Gal(b1-4)GlcNAc6S
How it was run: as §1

[9] = biological target: Fuc(a1-2)Gal(b1-4)[Fuc(a1-3)]GlcNAc
How it was run: as §1

[10] = biological target: Fuc(a1-2)Gal(b1-4)[Fuc(a1-3)]GlcNAc(b1-3)Gal(b1-4)[Fuc(a1-3)]GlcNAc
How it was run: as §1

[11] = biological target: Fuc(a1-2)Gal(b1-4)[Fuc(a1-3)]GlcNAc(b1-3)Gal(b1-4)[Fuc(a1-3)]GlcNAc(b1-3)Gal(b1-4)[Fuc(a1-3)]GlcNAc
How it was run: as §1

Fuc(a1-2)Gal6S(b1-4)Glc = biological target: Fuc(a1-2)Gal6S(b1-4)Glc
How it was run: as §1

[12] = biological target: Fuc(a1-2)Gal6S(b1-4)Glc6S
How it was run: as §1

[13] = biological target: Fuc(a1-2)Gal6S(b1-4)GlcNAc
How it was run: as §1

Fuc(a1-2)[Gal(a1-3)]Gal = biological target: Fuc(a1-2)[Gal(a1-3)]Gal
How it was run: as §1

[14] = biological target: Fuc(a1-2)[Gal(a1-3)]Gal(b1-3)GlcNAc
How it was run: as §1

[15] = biological target: Fuc(a1-2)[Gal(a1-3)]Gal(b1-4)Glc
How it was run: as §1

[16] = biological target: Fuc(a1-2)[Gal(a1-3)]Gal(b1-4)GlcNAc
How it was run: as §1

[17] = biological target: Fuc(a1-2)[Gal(a1-3)]Gal(b1-4)[Fuc(a1-3)]GlcNAc
How it was run: as §1

[18] = biological target: Fuc(a1-2)[Gal(a1-4)]Gal(b1-4)GlcNAc
How it was run: as §1

[19] = biological target: Fuc(a1-2)[GalNAc(a1-3)]Gal
How it was run: as §1

[20] = biological target: Fuc(a1-2)[GalNAc(a1-3)]Gal(b1-3)GlcNAc
How it was run: as §1

[21] = biological target: Fuc(a1-2)[GalNAc(a1-3)]Gal(b1-4)Glc
How it was run: as §1

[22] = biological target: Fuc(a1-2)[GalNAc(a1-3)]Gal(b1-4)GlcNAc
How it was run: as §1

[23] = biological target: Fuc(a1-2)[GalNAc(a1-3)]Gal(b1-4)[Fuc(a1-3)]GlcNAc
How it was run: as §1

[24] = biological target: Fuc(a1-2)[GalNAc(a1-4)]Gal(b1-4)GlcNAc
How it was run: as §1

[25] = biological target: Fuc(a1-2)[GalNAc(b1-3)]Gal
How it was run: as §1

Fuc(a1-3)GlcNAc = biological target: Fuc(a1-3)GlcNAc
How it was run: as §1

[26] = biological target: Fuc(a1-3)[Gal(b1-4)]Glc6S
How it was run: as §1

[27] = biological target: Fuc(a1-3)[Gal(b1-4)]GlcNAc
How it was run: as §1

[28] = biological target: Fuc(a1-3)[Gal(b1-4)]GlcNAc(b1-2)Man(a1-3)[Fuc(a1-3)[Gal(b1-4)]GlcNAc(b1-2)Man(a1-6)]Man(b1-4)GlcNAc(b1-4)GlcNAc
How it was run: as §1

[29] = biological target: Fuc(a1-3)[Gal(b1-4)]GlcNAc(b1-2)Man(a1-6)[Gal(b1-4)GlcNAc(b1-2)Man(a1-3)]Man(b1-4)GlcNAc(b1-4)GlcNAc
How it was run: as §1

[30] = biological target: Fuc(a1-3)[Gal(b1-4)]GlcNAc(b1-3)Gal(b1-3)[Fuc(a1-4)]GlcNAc
How it was run: as §1

[31] = biological target: Fuc(a1-3)[Gal(b1-4)]GlcNAc(b1-4)Gal(b1-4)[Fuc(a1-3)]GlcNAc
How it was run: as §1

[32] = biological target: Fuc(a1-3)[Gal(b1-4)]GlcNAc(b1-4)Gal(b1-4)[Fuc(a1-3)]GlcNAc(b1-4)Gal(b1-4)[Fuc(a1-3)]GlcNAc
How it was run: as §1

[33] = biological target: Fuc(a1-3)[Gal(b1-4)]GlcNAc6S
How it was run: as §1

[34] = biological target: Fuc(a1-3)[Gal3S(b1-4)]Glc6S
How it was run: as §1

[35] = biological target: Fuc(a1-3)[Gal3S(b1-4)]GlcNAc
How it was run: as §1

[36] = biological target: Fuc(a1-3)[Gal3S(b1-4)]GlcNAc6S
How it was run: as §1

[37] = biological target: Fuc(a1-3)[GalNAc(b1-4)]GlcNAc
How it was run: as §1

Fuc(a1-4)GlcNAc = biological target: Fuc(a1-4)GlcNAc
How it was run: as §1

Fuc(b1-3)GlcNAc = biological target: Fuc(b1-3)GlcNAc
How it was run: as §1

Gal(a1-2)Gal = biological target: Gal(a1-2)Gal
How it was run: as §1

Gal(a1-3)Gal = biological target: Gal(a1-3)Gal
How it was run: as §1

Gal(a1-3)Gal(b1-3)GlcNAc = biological target: Gal(a1-3)Gal(b1-3)GlcNAc
How it was run: as §1

Gal(a1-3)Gal(b1-4)Glc = biological target: Gal(a1-3)Gal(b1-4)Glc
How it was run: as §1

Gal(a1-3)Gal(b1-4)GlcNAc = biological target: Gal(a1-3)Gal(b1-4)GlcNAc
How it was run: as §1

[38] = biological target: Gal(a1-3)Gal(b1-4)[Fuc(a1-3)]GlcNAc
How it was run: as §1

Gal(a1-3)GalNAc = biological target: Gal(a1-3)GalNAc
How it was run: as §1

[39] = biological target: Gal(a1-3)[Gal(a1-4)]Gal(b1-4)GlcNAc
How it was run: as §1

Gal(a1-4)Gal(b1-4)Glc = biological target: Gal(a1-4)Gal(b1-4)Glc
How it was run: as §1

Gal(a1-4)Gal(b1-4)GlcNAc = biological target: Gal(a1-4)Gal(b1-4)GlcNAc
How it was run: as §1

Gal(a1-4)GlcNAc = biological target: Gal(a1-4)GlcNAc
How it was run: as §1

Gal(a1-6)Glc = biological target: Gal(a1-6)Glc
How it was run: as §1

B1: LSECtin (Homo sapiens), Q6UXB4 (protein)
chain: MEQESALRELRERVTQGLAEAGRGREDVRTELFRALEAVRLQNNSCEPCPTSWLSFEGSCYFFSVPKTTWAAAQDHCADASAHLVIVGGLDEQGFLTRNTRGRGYWLGLRAVRHLGKVQGYQWVDGVSLSFSHWNQGEPNDAWGRENCVMMLHTGLWNDAPCDSEKDGWICEKKAQLLTPPSALEPRPLQHVVSWGLLTSLAPGADCQRVFSSSSTAAESQKHLAQHSPVQPSAWALGPPCRPHPNSTHADPT
**Q.** What does the source list for B1?
**A.** glycan array binding signal (z-score) (Fuc(a1-2)Gal): 0.115; glycan array binding signal (z-score) (Fuc(a1-2)Gal(b1-3)GalNAc): -0.303; glycan array binding signal (z-score) [1]: -0.298; glycan array binding signal (z-score) [2]: -0.303; glycan array binding signal (z-score) [3]: -0.296; glycan array binding signal (z-score) (Fuc(a1-2)Gal(b1-3)GlcNAc): -0.244; glycan array binding signal (z-score) [4]: -0.306; glycan array binding signal (z-score) [5]: -0.267; glycan array binding signal (z-score) (Fuc(a1-2)Gal(b1-4)Glc): 3.15; glycan array binding signal (z-score) (Fuc(a1-2)Gal(b1-4)Glc6S): -0.241; glycan array binding signal (z-score) (Fuc(a1-2)Gal(b1-4)GlcNAc): 1.99; glycan array binding signal (z-score) [6]: 2.42; glycan array binding signal (z-score) [7]: 1.44; glycan array binding signal (z-score) [8]: 0.016; glycan array binding signal (z-score) [9]: 1.98; glycan array binding signal (z-score) [10]: 0.024; glycan array binding signal (z-score) [11]: -0.004; glycan array binding signal (z-score) (Fuc(a1-2)Gal6S(b1-4)Glc): 1.57; glycan array binding signal (z-score) [12]: -0.263; glycan array binding signal (z-score) [13]: 0.309; glycan array binding signal (z-score) (Fuc(a1-2)[Gal(a1-3)]Gal): 1.58; glycan array binding signal (z-score) [14]: -0.278; glycan array binding signal (z-score) [15]: -0.287; glycan array binding signal (z-score) [16]: -0.303; glycan array binding signal (z-score) [17]: 0.005; glycan array binding signal (z-score) [18]: 2.9; glycan array binding signal (z-score) [19]: 1.82; glycan array binding signal (z-score) [20]: -0.293; glycan array binding signal (z-score) [21]: -0.304; glycan array binding signal (z-score) [22]: -0.304; glycan array binding signal (z-score) [23]: -0.254; glycan array binding signal (z-score) [24]: 0.263; glycan array binding signal (z-score) [25]: -0.28; glycan array binding signal (z-score) (Fuc(a1-3)GlcNAc): -0.079; glycan array binding signal (z-score) [26]: -0.236; glycan array binding signal (z-score) [27]: -0.258; glycan array binding signal (z-score) [28]: -0.227; glycan array binding signal (z-score) [29]: 2.33; glycan array binding signal (z-score) [30]: -0.278; glycan array binding signal (z-score) [31]: -0.284; glycan array binding signal (z-score) [32]: -0.279; glycan array binding signal (z-score) [33]: 0.014; glycan array binding signal (z-score) [34]: 0.092; glycan array binding signal (z-score) [35]: 0.177; glycan array binding signal (z-score) [36]: 0.707; glycan array binding signal (z-score) [37]: -0.259; glycan array binding signal (z-score) (Fuc(a1-4)GlcNAc): -0.301; glycan array binding signal (z-score) (Fuc(b1-3)GlcNAc): 0.342; glycan array binding signal (z-score) (Gal(a1-2)Gal): -0.295; glycan array binding signal (z-score) (Gal(a1-3)Gal): -0.298; glycan array binding signal (z-score) (Gal(a1-3)Gal(b1-3)GlcNAc): -0.305; glycan array binding signal (z-score) (Gal(a1-3)Gal(b1-4)Glc): -0.285; glycan array binding signal (z-score) (Gal(a1-3)Gal(b1-4)GlcNAc): -0.298; glycan array binding signal (z-score) [38]: 0.344; glycan array binding signal (z-score) (Gal(a1-3)GalNAc): -0.291; glycan array binding signal (z-score) [39]: -0.301; glycan array binding signal (z-score) (Gal(a1-4)Gal(b1-4)Glc): -0.309; glycan array binding signal (z-score) (Gal(a1-4)Gal(b1-4)GlcNAc): -0.291; glycan array binding signal (z-score) (Gal(a1-4)GlcNAc): -0.297; glycan array binding signal (z-score) (Gal(a1-6)Glc): -0.305
